# In the supplement of paper PMC8728848:
# This is one part of the list.
# Key:
# Test in all cases: glycan array binding signal (z-score within array); higher = stronger binding
# Conditions in all cases: glycan notation: IUPAC condensed, linker removed; mutation: E227G
# [1] = molecular target: Gal(b1-3)GlcNAc(b1-2)Man(a1-3)[Gal(b1-3)GlcNAc(b1-2)Man(a1-6)]Man(b1-4)GlcNAc(b1-4)GlcNAc
# Procedure, shortened: (§1)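 The binding signal is a Z-score computed within each array and averaged over linkers. Arrays of the same protein sequence at different concentrations or buffers were also averaged together. Data originate from 3228 arrays in the Consortium for Functional Glycomics database, kept only where the protein sequence was available.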
# [2] = molecular target: Gal(b1-3)GlcNAc(b1-2)Man(a1-3)[Gal(b1-3)GlcNAc(b1-2)Man(a1-6)]Man(b1-4)GlcNAc(b1-4)[Fuc(a1-6)]GlcNAc
# Procedure, shortened: as §1
# [3] = molecular target: Gal(b1-3)GlcNAc(b1-2)Man(a1-3)[GlcNAc(b1-4)][Gal(b1-3)GlcNAc(b1-2)Man(a1-6)]Man(b1-4)GlcNAc(b1-4)GlcNAc
# Procedure, shortened: as §1
# [4] = molecular target: Gal(b1-3)GlcNAc(b1-2)[Gal(b1-3)GlcNAc(b1-6)]Man(a1-6)[Gal(b1-3)GlcNAc(b1-2)Man(a1-3)]Man(b1-4)GlcNAc(b1-4)GlcNAc
# Procedure, shortened: as §1
# [5] = molecular target: Gal(b1-3)GlcNAc(b1-3)Gal(b1-3)GlcNAc
# Procedure, shortened: as §1
# [6] = molecular target: Gal(b1-3)GlcNAc(b1-3)Gal(b1-4)Glc
# Procedure, shortened: as §1
# [7] = molecular target: Gal(b1-3)GlcNAc(b1-3)Gal(b1-4)GlcNAc
# Procedure, shortened: as §1
# [8] = molecular target: Gal(b1-3)GlcNAc(b1-3)Gal(b1-4)GlcNAc(b1-2)Man(a1-3)[Gal(b1-3)GlcNAc(b1-3)Gal(b1-4)GlcNAc(b1-2)Man(a1-6)]Man(b1-4)GlcNAc(b1-4)GlcNAc
# Procedure, shortened: as §1
# [9] = molecular target: Gal(b1-3)GlcNAc(b1-3)Gal(b1-4)GlcNAc(b1-2)[Gal(b1-3)GlcNAc(b1-3)Gal(b1-4)GlcNAc(b1-6)]Man(a1-6)[Gal(b1-3)GlcNAc(b1-3)Gal(b1-4)GlcNAc(b1-2)Man(a1-3)]Man(b1-4)GlcNAc(b1-4)[Fuc(a1-6)]GlcNAc
# Procedure, shortened: as §1
# [10] = molecular target: Gal(b1-3)GlcNAc(b1-3)Gal(b1-4)GlcNAc(b1-3)Gal(b1-4)GlcNAc(b1-2)[Gal(b1-3)GlcNAc(b1-3)Gal(b1-4)GlcNAc(b1-3)Gal(b1-4)GlcNAc(b1-6)]Man(a1-6)[Gal(b1-3)GlcNAc(b1-3)Gal(b1-4)GlcNAc(b1-3)Gal(b1-4)GlcNAc(b1-2)Man(a1-3)]Man(b1-4)GlcNAc(b1-4)[Fuc(a1-6)]GlcNAc
# Procedure, shortened: as §1
# [11] = molecular target: Gal(b1-3)GlcNAc(b1-3)Gal(b1-4)GlcNAc(b1-6)[Gal(b1-3)GlcNAc(b1-3)]Gal(b1-4)Glc
# Procedure, shortened: as §1
# [12] = molecular target: Gal(b1-3)GlcNAc(b1-3)Gal(b1-4)[Fuc(a1-3)]GlcNAc
# Procedure, shortened: as §1
# [13] = molecular target: Gal(b1-3)GlcNAc(b1-3)Gal(b1-4)[Fuc(a1-3)]GlcNAc(b1-6)[Gal(b1-3)GlcNAc(b1-3)]Gal(b1-4)Glc
# Procedure, shortened: as §1
# [14] = molecular target: Gal(b1-3)GlcNAc(b1-3)GalNAc
# Procedure, shortened: as §1
# [15] = molecular target: Gal(b1-3)GlcNAc(b1-6)Gal(b1-4)GlcNAc
# Procedure, shortened: as §1
# [16] = molecular target: Gal(b1-3)GlcNAc(b1-6)GalNAc
# Procedure, shortened: as §1
# [17] = molecular target: Gal(b1-3)GlcNAc(b1-6)[Gal(b1-3)]GalNAc
# Procedure, shortened: as §1
# [18] = molecular target: Gal(b1-3)GlcNAc6S
# Procedure, shortened: as §1
# [19] = molecular target: Gal(b1-3)[Fuc(a1-4)]GlcNAc
# Procedure, shortened: as §1
# [20] = molecular target: Gal(b1-3)[Fuc(a1-4)]GlcNAc(b1-2)Man
# Procedure, shortened: as §1
# [21] = molecular target: Gal(b1-3)[Fuc(a1-4)]GlcNAc(b1-2)Man(a1-3)[Gal(b1-3)[Fuc(a1-4)]GlcNAc(b1-2)Man(a1-6)]Man(b1-4)GlcNAc(b1-4)[Fuc(a1-6)]GlcNAc
# Procedure, shortened: as §1
# [22] = molecular target: Gal(b1-3)[Fuc(a1-4)]GlcNAc(b1-3)Gal(b1-3)[Fuc(a1-4)]GlcNAc
# Procedure, shortened: as §1
# [23] = molecular target: Gal(b1-3)[Fuc(a1-4)]GlcNAc(b1-3)Gal(b1-4)[Fuc(a1-3)]GlcNAc
# Procedure, shortened: as §1
# [24] = molecular target: Gal(b1-3)[Fuc(a1-4)]GlcNAc(b1-6)GalNAc
# Procedure, shortened: as §1
# [25] = molecular target: Gal(b1-3)[GlcNAc(b1-6)]GalNAc
# Procedure, shortened: as §1
# [26] = molecular target: Gal(b1-3)[Neu5Ac(a2-6)]GalNAc
# Procedure, shortened: as §1
# [27] = molecular target: Gal(b1-3)[Neu5Ac(a2-6)]GlcNAc(b1-4)Gal(b1-4)Glc
# Procedure, shortened: as §1
# [28] = molecular target: Gal(b1-3)[Neu5Ac(b2-6)]GalNAc
# Procedure, shortened: as §1
# [29] = molecular target: Gal(b1-4)Gal
# Procedure, shortened: as §1
# [30] = molecular target: Gal(b1-4)GalNAc(a1-3)[Fuc(a1-2)]Gal(b1-4)GlcNAc
# Procedure, shortened: as §1
binder,measurement,setting,value
"Epa1-NP-mutant-E227G (Candida glabrata), Q6VBJ0 (protein) MILNPALFLNKCVCIYTTLILLLLTNGGYATSSNDISLASKDPTTFPLGCSPDITTPKKGLSMELYSYDFRKKGSYPCWDAAYLDPNYPRTGYKSHRLLAKVDGVTGNINFYYHATKGCTPQLGHLPASYNYPKPLTMTNFTMLLYGYFRPKVTGFHTFTISADDLLFVNFGAGNAFDCCRRDSSADHFGNYQAYAIWGSKTAKDELTVHLDAGVYYPIRLFYNNRGYDGALSFTFKTESNENTVSDFSEYFFSLDDTEEGCPGLISYDSSCASVKTSKIIGIDYHTETPNENLVPITKTIYHLGIPCTGTTTTPLCGSGFYDPLANKCVTINTSSTSSVTKTTSHTTSKEVSFHSSISSQKTLIPKSIPSPYGPIKSQSIPTEMETSSEISSSEYAFSDVISTPSHSPYTKKHSSLNSSSYTSTVIHSLTSYSISQGIFSTSLSEQNITSKSSTDKFSTATSMSNNITQSSIIISQFSTNNENYTTTSMHTSSDKISTETLNNSISTTTSILFSNSSTILKNNTTIISSDKDTHYHPVNPTIVCSTNKTEIICASITQPSISNSNNHWSSSVLKFNSTTVRSTLPSSAGSNETSINVPFSSSTESNTSTSSTSTSNSKMVRSTLPSSAGSNETSISVPFSSSTESNTSTSSTSTSNSKMVRSTLPSSAGSNETSINVPFSSSTESNTSTSSTSTSNSKTVRSTPFSSAGIIMTSLSQRNNKSASSYASSNSKCYNTADSCRKVHSTPSYLLTSSYTSEGVDYDCSLVSTKLKINDTNCVNNKHTTKSCLKTSVTTTIPTLEIKTARKSSSNTIGLHSYPTSSPNKSISSAPIIGYISSFKTIKTASPSYQTSDLTTITTITSLNNPGSTAVENTHESNDKSRKTSSNDISSKHSVIKETKDAVESSNKSHQTNTLKCSSIIIASSSHNSYESLGGTTLTLTLSKVYSPQNNDTLPFLEISEVNPSRTVLPESSKMMQYLTSTEERNKTARNTIATNIVSISTFHFEGEGNAIRMGYTQLLLMLIGIIVMNIGT",glycan array binding signal (z-score),[1],1.06
same,glycan array binding signal (z-score),[2],-0.114
same,glycan array binding signal (z-score),[3],-0.01
same,glycan array binding signal (z-score),[4],-0.08
same,glycan array binding signal (z-score),[5],-0.112
same,glycan array binding signal (z-score),[6],0.018
same,glycan array binding signal (z-score),[7],-0.173
same,glycan array binding signal (z-score),[8],0.08
same,glycan array binding signal (z-score),[9],0.017
same,glycan array binding signal (z-score),[10],0.069
same,glycan array binding signal (z-score),[11],0.421
same,glycan array binding signal (z-score),[12],-0.247
same,glycan array binding signal (z-score),[13],-0.074
same,glycan array binding signal (z-score),[14],-0.236
same,glycan array binding signal (z-score),[15],4.84
same,glycan array binding signal (z-score),[16],-0.149
same,glycan array binding signal (z-score),[17],0.096
same,glycan array binding signal (z-score),[18],2.52
same,glycan array binding signal (z-score),[19],-0.184
same,glycan array binding signal (z-score),[20],0.106
same,glycan array binding signal (z-score),[21],-0.197
same,glycan array binding signal (z-score),[22],-0.323
same,glycan array binding signal (z-score),[23],-0.141
same,glycan array binding signal (z-score),[24],-0.108
same,glycan array binding signal (z-score),[25],0.609
same,glycan array binding signal (z-score),[26],1.35
same,glycan array binding signal (z-score),[27],-0.257
same,glycan array binding signal (z-score),[28],0.131
same,glycan array binding signal (z-score),[29],-0.248
same,glycan array binding signal (z-score),[30],-0.119
